Source: the supplement of paper PMC11417369
The other results are listed elsewhere or left out.

system: PF3D7_0420300 AP2 domain 1 (GST-tagged); test: gcPBM binding intensity (ln(normalized median fluorescence intensity)); higher = stronger DNA binding
Method in brief: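 An Agilent 4 × 180k array carrying primer-extended double-stranded 36-bp intergenic genomic probes and negative controls received GST-tagged P. falciparum DNA-binding domains expressed in E. coli, about 25 μg on average, for 1 h. The binding buffer contained 1× PBS, 1% milk, 0.2 mg/ml BSA, 0.5% salmon testes DNA and 0.03% Triton X-100. Binding intensity is the top Masliner-normalised natural-log median intensity across replicate spots of either probe orientation, read after Alexa488 anti-GST antibody staining and a 488 nm scan.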

Sequence	gcPBM binding intensity (ln)
TCTTTGGTATTTACATGTACATATTCTTAAAAACAT [XGTACX_site3124]	9.33
GAAAATAAAATATTAGTGCATTATTTGATCAATAAT	9.11
TATATTTATACTTATACACACATTATTGAATTAACC [CACACA_site934]	9.52
ATTATTTATATTTGGAGTACTTATAATATTTTTATA [XGTACX_site1289]	9.27
CTTTATATATTTTATTGTACTTAAAAAAAAAAAAAA [XGTACX_site2134]	8.63
AAAAAATATGCATATACACACATATGTATAAATAAC [CACACA_site7090]	9.65
AAAATATTTATTCCTAGTACTTACCATTATATATAT [XGTACX_site363]	9.37
AAAAAAAAATGAAAAGAAAAAAAAAGAAAAAAGGGA [CACACA_negctrl_site287]	9.66
TATAGGTATTTGTATACACACAAATGTATATATCTA [CACACA_site6713]	9.31
AGTGTAAGCTAAGTGGTGCGTTGAATAAGGTTTTTT [GTGCAC_site9951]	9.31
ATAAATAAAACAAATAGTACAATATAAAAAAAAAGG [XGTACX_site87]	9.81
AAGAGGATACACAATGTGCACTTTTTTTTTTTTTTT [GTGCAC_site9415]	9.27
TATACAGATATATATACACACATATATATAAATACA [CACACA_site4383]	9.68
TATATATATAATATATGTACTCATATTAAGAGATAC [XGTACX_site1354]	9.19
TATATATGTATATTTTGTACGTATTTATTTACATGA [XGTACX_site4584]	9.3
AATGAGCTTTTTAAAAGTACTAAATATAAATAAATA [XGTACX_site3632]	9.04
ATAATATAAATATACACACACACATATATATATATA [CACACA_site2905]	9.91
TAATAAGGAATTTATAGTACATATTCATATGTTTTA [XGTACX_site2331]	8.92
ATAAAAATTTATATATGTACTTAATTTTTAATTTTT [XGTACX_site7482]	9.15
TATGTTTTTGAATGAGTGCATTAAAATAAAACATTT	8.99
TTCTTGTATATTCATAGTACATATAATGTCGTGTTA [XGTACX_site8991]	9.24
AATTTAAAAAATAATTGTACAAAAAAAAAAAATCAG [XGTACX_site4576]	9.37
GTTAATATTTTTGGGGGTACTTAAAAAAAAAAAAAA [XGTACX_site1477]	9.22

Sequence	gcPBM binding intensity (ln)
TTACATACAATTGGTGTGCACATATATATATATATA	9.44
GAATATTAATTCAAGTGTACAAATATATATATAATT [XGTACX_site5103]	9.23
CAAAAGGATAGGCACACACACACACCGATATATATA [CACACA_site8685]	10.2
TATGTTTCTATATATACATGCAAGAAGAAATGTACT [TGCATGCA_site891]	9.13
AAAAAAAAAAAAGAAAAATATATATATAAATAAATA [GTGCAC_negctrl_site569]	9.12
ATATGTACAAATTATACACACATGTACAATTATATA [CACACA_site1253]	9.49
ATGTCACAATTTTTCACACACAAAATTTATATACAT [CACACA_site2030]	9.72
AAATAAAGAAATGCAAGTACATACTAAACTAATCCA [XGTACX_site1209]	9.55
TTGTTTTATACATAGTGTACATATAAAAATTTTTTT [XGTACX_site7549]	9.07
ATATATATTATAATCTGTACATAAATATATAATAAA [XGTACX_site5425]	9.1
TCTTAAATTATGATAAAATATAATAAATAAATAAAT [CACACA_negctrl_site1520]	8.98
ATTTTCCCTAGAATATGTACACATAGTAAATATTAT [XGTACX_site7499]	9.24
CAGATAAATAAACACACACACACATATATATATATA [CACACA_site9311]	9.93
ATATATAAATATGAAACACACATTCTATTTAATTCG [CACACA_site1450]	9.3
CTTAAATCCATAATATGTACTTAAAAAGAAAAAATA [XGTACX_site4765]	8.91
ATAATTATACAAAAGCGTACACGATATAAATCTACG [XGTACX_site8115]	9.41
AGACAATTTTTTAGTACACACATATAGATATATAAA [CACACA_site6832]	9.46
TTATAAAAAAAAAAAAAAAAAAAAACCAATATAATA [CACACA_negctrl_site968]	9.22
TTTATTCTAAAATATTAAAAATGATTTGTTTTTTCA [CACACA_negctrl_site1751]	8.78
ATATGAACATTAAAAAAGTAAGGTATTCTCCCCTCT [CACACA_negctrl_site1299]	9.2
GTATTATAAAAAGGAAGTACATATATACATATTATA [XGTACX_site1271]	9.26
AATTATACTCACGTTACACACACACTAGATATATAT [CACACA_site6133]	10.1
